The text below walks through data of paper PMC4336329 (PLoS ONE, 2015).

Among all 310,000 compounds or so, about 14,000 (4.5%) showed an effect of 50% or more. The effect is printed as a negative number. The list shows a part of the results.
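Note: peak tail current of the secondary pulse compared with the same well before compound.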

In this test the target is human ether-à-go-go-related gene (hERG) potassium channel (human, UniProt Q12809). Kind of test: primary screen, population patch clamp on CHO cells stably expressing hERG.
Sequence of human ether-à-go-go-related gene (hERG) potassium channel (Q12809 whole entry, looked up): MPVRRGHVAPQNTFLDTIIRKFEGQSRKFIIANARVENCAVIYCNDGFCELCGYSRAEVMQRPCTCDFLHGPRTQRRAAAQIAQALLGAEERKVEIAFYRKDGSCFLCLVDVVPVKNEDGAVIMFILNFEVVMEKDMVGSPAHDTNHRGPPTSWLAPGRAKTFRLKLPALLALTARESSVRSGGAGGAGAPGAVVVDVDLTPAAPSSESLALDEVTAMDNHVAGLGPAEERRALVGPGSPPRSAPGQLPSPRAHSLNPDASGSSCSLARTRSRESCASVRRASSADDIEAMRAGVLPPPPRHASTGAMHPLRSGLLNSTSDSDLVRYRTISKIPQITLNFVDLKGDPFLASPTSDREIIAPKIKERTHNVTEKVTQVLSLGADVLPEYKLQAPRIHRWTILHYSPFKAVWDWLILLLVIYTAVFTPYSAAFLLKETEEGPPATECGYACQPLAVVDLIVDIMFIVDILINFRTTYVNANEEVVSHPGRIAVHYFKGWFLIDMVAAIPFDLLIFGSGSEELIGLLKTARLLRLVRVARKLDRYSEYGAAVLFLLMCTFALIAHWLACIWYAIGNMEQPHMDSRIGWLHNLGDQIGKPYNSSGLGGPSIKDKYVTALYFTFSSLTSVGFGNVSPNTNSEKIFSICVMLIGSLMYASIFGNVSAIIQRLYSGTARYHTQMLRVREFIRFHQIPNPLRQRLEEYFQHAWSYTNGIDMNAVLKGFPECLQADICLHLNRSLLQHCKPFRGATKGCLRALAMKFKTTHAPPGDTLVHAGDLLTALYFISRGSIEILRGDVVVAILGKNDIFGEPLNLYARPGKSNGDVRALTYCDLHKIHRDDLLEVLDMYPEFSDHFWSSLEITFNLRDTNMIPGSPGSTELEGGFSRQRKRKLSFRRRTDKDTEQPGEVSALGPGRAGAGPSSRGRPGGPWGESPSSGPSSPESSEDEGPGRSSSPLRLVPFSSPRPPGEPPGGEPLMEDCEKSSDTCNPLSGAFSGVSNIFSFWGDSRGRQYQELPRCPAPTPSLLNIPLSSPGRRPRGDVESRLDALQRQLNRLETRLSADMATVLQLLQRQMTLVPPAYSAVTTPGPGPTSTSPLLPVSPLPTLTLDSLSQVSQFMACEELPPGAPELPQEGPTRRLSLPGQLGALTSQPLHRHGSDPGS
On to `COc1ccc(NC(=O)CSCC(=O)N2CCN(C(=O)c3ccco3)CC2)cc1`, for which the “hERG current change (%, negative = inhibition) at 10uM” value is recorded as -55.1%.
The figure for `COc1ccc(Nc2cc(C)nc(NCc3ccccc3)n2)cc1` is -38%; for `COc1ccc(-c2noc(CCC(=O)NCCCN3CCN(c4ccccc4F)CC3)n2)cc1` it is -61%.
To `CCN(C(=O)CN1CC=C(c2ccccc2)CC1)c1c(N)n(Cc2ccccc2)c(=O)[nH]c1=O` belongs 14.1%.
The figure for `COc1ccc(OC)c(NC(=O)CCCc2ccccc2)c1` is 6.1%; for `O=C(CSc1nc2c(c(=O)n1-c1ccc(Cl)cc1)SCC2)NCc1ccco1` it is -19.4%.
`CC1=NN(C(C#N)c2ccccc2C)C(C)(C)C1` (centres unmarked): the “hERG current change (%, negative = inhibition) at 10uM” value is on record as 6.62%.
The figure for `CN1CCN(C(=O)c2ccc3c(c2)OCCO3)CC1.Cl` is -3.6%; for `Cc1noc(NS(=O)(=O)c2ccc(NC(=O)Nc3ccc(Cl)c(Cl)c3)cc2)c1C` it is 63.2%.
To `COc1ccc(Cl)cc1NC(=O)CN1CCc2ccccc21` belongs -6.19%; to `Cc1n[nH]c(C)c1SCC(=O)Nc1ccc(F)cc1`, 14.8%.
The figure for `Cc1nc(-c2cc(C#N)c(=O)[nH]c2C)cs1` is 19.9%.
Take `Cc1nn(C)c(NC(=O)c2ccc([N+](=O)[O-])cc2)c1Cl`: the “hERG current change (%, negative = inhibition) at 10uM” value is given as -1.85%.
The figure for `CCc1ccccc1Nc1nc(N)nc(COC(=O)CCC(=O)c2ccc(F)cc2)n1` is -34.4%.
The figure for `O=C(CCN1C(=O)C2C3C=CC(C3)C2C1=O)NCC1CCCO1` (centres unmarked) is -4.54%; for `O=c1c2cnn(-c3ccc(F)cc3)c2ncn1Cc1ccccc1` it is 2.59%.
The figure for `Cc1nc2nc3c(c(=O)n2[nH]1)CCC3` is -2.24%; for `C#CCOCCOCCOCCNc1nc(N2CCOCC2)nc(N2CCN(C(=O)[C@H](Cc3cc4ccccc4[nH]3)n3cc([C@@H](N)CC(C)C)nn3)CC2)n1.Cl` it is 10.8%; for `Cc1ccc(C(=O)NCC(=O)OC(C)C(=O)NCCC2=CCCCC2)cc1C` (centres unmarked) it is 5.58%.
As for `O=C(Nc1ccc(OCc2ccccc2)cc1)c1cccc([N+](=O)[O-])c1`, the “hERG current change (%, negative = inhibition) at 10uM” value is 12%.
The figure for `O=C(NCC(=O)N1CCCC(C(F)(F)F)C1)c1ccccc1Br` (centres unmarked) is 6.21%.
The figure for `O=C1CN(C(=O)c2cccc(Br)c2)c2ccccc2N1` is -10.8%; for `N#C/C(=C/c1cn(CC(=O)O)c2ccccc12)C(=O)Nc1ccccc1` it is 15.4%; for `CCOC(=O)c1cnc2cc(-c3ccc(C(C)(C)C)cc3)nn2c1N` it is 7.95%.
The figure for `CC(C)(C)NC(=O)Cn1cc(C(=O)c2ccccc2F)c2ccccc21` is 12.5%; for `CC(C)CCn1c(=O)c(C(=O)N/N=C/c2cccc(F)c2)c(O)c2ccccc21` it is 17.8%.
`CC(C)CNc1nc(Oc2ccc(=O)[nH]n2)nc(N(C)C)n1`: the “hERG current change (%, negative = inhibition) at 10uM” value is reported as 8.46%.
To `Cc1ccc(NC(=O)C2CC(=O)N(C(C)C)C2)cc1Cl` (centres unmarked) belongs 33.2%.
For `COc1ccc(C)cc1NC(=O)COC(=O)c1ccc2ccccc2n1`, the “hERG current change (%, negative = inhibition) at 10uM” value was found to be 3.24%.
To `CCN1C(=O)[C@H]2[C@@H](c3ccc(-c4cccc(Cl)c4)c(OC)c3)N[C@@](C)(C(=O)OC)[C@H]2C1=O.O=C(O)C(F)(F)F` belongs -9.94%; to `O=C(NN1CCOCC1)c1cc(-c2ccc(Br)s2)nc2ccccc12`, -3.42%; to `COc1cc(C(=O)OCC(=O)N2CCCC2)cc(OC)c1OC`, 9.55%.
Regarding `Cc1ccc(N2C(=O)/C(=C/c3cccnc3)SC2=S)cc1`, the “hERG current change (%, negative = inhibition) at 10uM” value was 14.9%.
With `COc1ccc(-c2nn(-c3ccccc3)cc2C(=O)n2nnc3ccccc32)cc1`, the “hERG current change (%, negative = inhibition) at 10uM” value is listed as 21.9%.
The figure for `Cc1ccc(NCC(=O)N=Nc2c(O)[nH]c3ccc([N+](=O)[O-])cc23)cc1` is -5.06%.
To `CCOc1cc(C2C(C(=O)c3ccc(C)cc3)=C(C(=O)OC)Nc3nnnn32)ccc1O` (centres unmarked) belongs 11.9%; to `CCOC(=O)C1=C(O)CSC1=Nc1cccc(Cl)c1`, 2.11%.
To `CC(=O)c1cccc(NC(=S)NC2CCCCC2)c1` belongs -9.05%; to `CC(NS(=O)(=O)c1ccc(Br)cc1)C(=O)Nc1nc2ccccc2[nH]1` (centres unmarked), -6.06%; to `O=C(NCc1nnc(SCC(=O)N2CCCC2)o1)c1cccc(C(F)(F)F)c1`, 8.84%.
Regarding `CCOC(=O)c1c(NC(=O)C(C)NCc2ccco2)sc2c1CCC(C)C2.O=C(O)C(=O)O` (centres unmarked), the “hERG current change (%, negative = inhibition) at 10uM” value was -4.23%.
The figure for `COc1ccc(/C=C2\SC(=S)N(CC(=O)N(C)C3CCS(=O)(=O)C3)C2=O)cc1` (centres unmarked) is -0.695%.
The figure for `CS(=O)(=O)N1CCN(c2ccc(NC(=S)NC(=O)c3cccs3)cc2)CC1` is 15.5%.
With `NC(=S)Nc1nccc(-c2cccs2)n1`, the “hERG current change (%, negative = inhibition) at 10uM” value was -3.38%.
To `Br.O=C1c2ccccc2C(=O)N1c1cccc(-c2csc(Nc3ccc4c(c3)OCO4)n2)c1` belongs -6.69%; to `CCCCn1nc(C(=O)Nc2cccc(C(=O)NC3CC3)c2)c2ccccc2c1=O`, -82.6%.
The figure for `Cc1cccc(NC(=O)CSCC(=O)N(C)CC(=O)Nc2cccc(F)c2)c1` is -3.01%.
The figure for `COc1cccc(-c2nc3ccc(N4CCN(C)CC4)cc3[nH]2)c1` is -20.5%; for `CC(C)CNC(=O)C1CC(=O)OC12CCCCC2` (centres unmarked) it is 10.7%; for `O=C(Nc1nccs1)c1ccc(-c2ccc(Cl)cc2)o1` it is 6.53%.
As for `Cl.O=C(CCN1CCCC1)Nc1ccc(Br)cc1`, the “hERG current change (%, negative = inhibition) at 10uM” value is reported as -15.7%.
The figure for `CC(C)Cn1c(N)c(C(=O)COC(=O)CCc2nc3ccccc3c(=O)[nH]2)c(=O)n(C)c1=O` is -36%.
The figure for `Cc1ccccc1CNC(=O)Nc1ccc(Cl)cc1` is 20.3%; for `Cc1ccc(C(=O)NC(Cc2c[nH]c3ccccc23)C(=O)O)o1` (centres unmarked) it is 10.1%.
For `COc1ccc(C2(c3ccc(OC)cc3)NC(=O)N(CC(=O)N3CCOCC3)C2=O)cc1`, the “hERG current change (%, negative = inhibition) at 10uM” value came out at 1.06%.
The figure for `Cc1ccc(OCC(=O)NNC(=S)NC(=O)C2CC2)c(C)c1` is 23.2%; for `CC(C)Cn1c(N)c(C(=O)COC(=O)c2c(F)cccc2F)c(=O)n(C)c1=O` it is -16.7%; for `CCOc1cccc(CN2CCCC(C(=O)Nc3ccc(-c4ccn[nH]4)cc3)C2)c1O` (centres unmarked) it is -29.5%.
Consider `CN(C)S(=O)(=O)n1cc(/C=C(\NC(=O)c2ccccc2)C(=O)N2CCCC2)c2ccccc21`, for which the “hERG current change (%, negative = inhibition) at 10uM” value is -4.67%.
Consider `COc1ccc(S(=O)(=O)NCC2CCC(C(=O)NCc3cccnc3)CC2)cc1` (centres unmarked), for which the “hERG current change (%, negative = inhibition) at 10uM” value was found to be 1.47%.
As for `CCN(CC)CCN(C(=O)c1ccc(CN2CCCCC2)o1)C(C(=O)NC1CCCCC1)c1ccc(F)cc1` (centres unmarked), the “hERG current change (%, negative = inhibition) at 10uM” value was -13.4%.
To `O=C(NNC(=S)Nc1ccc(Cl)cc1Cl)c1ccc(N2CCOCC2)c([N+](=O)[O-])c1` belongs 8.86%; to `C=CCN(C(=O)CNC(=O)c1ccco1)C(C(=O)NC1CCCCC1)c1ccc(F)cc1` (centres unmarked), 11.9%; to `COc1ccc(OC)c(NC(=O)c2oc3ccccc3c2NC(=O)C2CC2)c1`, 10.4%.
The figure for `Cn1cc(CN2CCCC(C(=O)c3cc(F)ccc3F)C2)c2ccccc21` (centres unmarked) is -31.1%; for `CCN(c1ccccc1C(=O)O)S(=O)(=O)c1cccc2nsnc12` it is 24.3%; for `OC(COc1ccc(C2C=CCC2)cc1)CN1CCCCC1` (centres unmarked) it is -42.6%.
On to `NC(=O)C1CC(=O)N(c2ccc(OCc3ccc(F)cc3)cc2)C1` (centres unmarked), for which the “hERG current change (%, negative = inhibition) at 10uM” value is listed as 10.4%.
To `CCN(CC)CCCn1c2c(c(SCC(=O)Nc3nccs3)nc1=O)CCC2` belongs -32%; to `O=C(O)c1ccc(SCc2cnc(Cl)s2)cc1`, -70%; to `CCCNc1nc(-c2cc(C(=O)Nc3ccccc3)on2)cc(C(C)C)n1`, 11.9%.
For `O=C(C(=O)N1CCc2ccccc2C1)c1cn(CC(=O)N2CCCC2)c2ccccc12`, the “hERG current change (%, negative = inhibition) at 10uM” value is -7.92%.
With `CCn1c(O)c(C=Nc2ccccc2)sc1=O`, the “hERG current change (%, negative = inhibition) at 10uM” value came out at 13.9%.
To `COc1ccc(Nc2ncnc3sc(-c4ccccc4)cc23)c(OC)c1` belongs 3.86%; to `Cn1c(=O)c2ncn(CC(=O)NC3CCCCCC3)c2n(C)c1=O`, 9.86%; to `CC(C)N(Cc1ccccc1)C(=O)CN1C(=O)NC2(CCCc3ccccc32)C1=O` (centres unmarked), 3.79%.
The figure for `CCOC(=O)c1c(NC(=O)CSc2nc3ccc(C)cc3[nH]2)sc2c1CC(C)(C)NC2(C)C` is -44.3%; for `Cc1cc(O)cc(=O)n1Cc1ccco1` it is 5.29%; for `CCOC(=O)COc1ncn(-c2ccccc2)n1` it is 2.4%.
To `O=C(COC(=O)c1cccc(F)c1)NC(=O)NC1CCCC1` belongs 5.55%; to `CCCCn1c(/N=C/c2ccc(N(C)C)cc2)nc2ccccc21`, -11.3%; to `CC(C)(C)n1ncc2c(=O)n(Cc3ccc(Cl)cc3)cnc21`, 7.16%.
`C[C@@H](NC(=O)c1nc[nH]c1C(=O)N1CCc2ccccc2C1)c1ccccc1`: the “hERG current change (%, negative = inhibition) at 10uM” value is -2.24%.
To `COc1ccc(CN=C2NC(=O)CC(C(=O)Nc3ccc(F)cc3)S2)cc1` (centres unmarked) belongs -29%; to `O=C(NCC1CCCO1)c1cccc(S(=O)(=O)Nc2ccc(SC(F)F)cc2)c1` (centres unmarked), -5.67%; to `CSCCC(NS(=O)(=O)c1ccccc1)C(=O)OC(C)C(=O)Nc1ccc(Cl)cn1` (centres unmarked), -58.8%.
